{"source": "the supplement of paper PMC7826260", "note": "The list shows a part of the results. Viral Rep nickase domains cut single-stranded DNA in vitro (1 h at 37 °C, 3 µM enzyme); the outer parts of the 90-letter strands are left off. Numbers give uncut DNA relative to the enzyme-free pool, as log2; strong cutting gives strongly negative numbers. There is no active / inactive call. Because reads are shares of a total, they shift together; values above 0 arise when much of the pool is cut.", "data": [{"system": "T1, Rep nickase domain of tomato golden mosaic virus", "T1 sequence (Rep 1-124, printed without the tag)": "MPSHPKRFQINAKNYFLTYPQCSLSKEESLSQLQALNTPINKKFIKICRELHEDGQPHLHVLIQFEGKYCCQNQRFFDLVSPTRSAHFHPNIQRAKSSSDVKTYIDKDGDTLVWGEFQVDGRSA", "experiment": "uncleaved DNA left, log2 of reads against the no-enzyme library (log2 ratio); higher = less cleavage (more negative = more Rep cleavage of the k-mer); sequences stand for … in CTCGTCCG…ACCGGAGA", "method": "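A pool of 90-nt single-stranded DNAs with seven random bases just before the constant AC of the nick site (name = the seven bases) was cut by 3 µM recombinant His6-SUMO-tagged Rep nickase domain (300 nM DNA, 50 mM HEPES pH 8.0, 50 mM NaCl, 1 mM MnCl2, 1 h, 37 °C, three replicates). Uncut DNA was amplified and sequenced.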", "values": [{"sequence": "GTAGACC", "uncleaved DNA left (log2)": 0.134}, {"sequence": "CGTTGCC", "uncleaved DNA left (log2)": -0.289}, {"sequence": "CTGAGAT", "uncleaved DNA left (log2)": 0.129}, {"sequence": "AGGAGGA", "uncleaved DNA left (log2)": 0.229}, {"sequence": "CACAAAC", "uncleaved DNA left (log2)": 0.0583}, {"sequence": "ATCGATA", "uncleaved DNA left (log2)": 0.0736}, {"sequence": "AATCTTG", "uncleaved DNA left (log2)": 0.0478}, {"sequence": "ATCCCAT", "uncleaved DNA left (log2)": -0.089}, {"sequence": "CCTTTTT", "uncleaved DNA left (log2)": -0.135}, {"sequence": "GTGCCAG", "uncleaved DNA left (log2)": -0.00631}, {"sequence": "CTGTTGA", "uncleaved DNA left (log2)": -0.053}, {"sequence": "TCGCCGC", "uncleaved DNA left (log2)": -0.147}, {"sequence": "GGTAGGT", "uncleaved DNA left (log2)": 0.0649}, {"sequence": "CCTCGAT", "uncleaved DNA left (log2)": -0.0134}, {"sequence": "AGTGTCG", "uncleaved DNA left (log2)": -0.163}, {"sequence": "ACGTCGC", "uncleaved DNA left (log2)": -0.0917}, {"sequence": "CTCCGAG", "uncleaved DNA left (log2)": 0.076}, {"sequence": "CACATAC", "uncleaved DNA left (log2)": -0.0977}, {"sequence": "TTGTGGA", "uncleaved DNA left (log2)": -0.0758}, {"sequence": "CGATAGA", "uncleaved DNA left (log2)": -0.022}, {"sequence": "ATGGGTG", "uncleaved DNA left (log2)": 0.124}, {"sequence": "TTAGTCC", "uncleaved DNA left (log2)": 0.0435}, {"sequence": "TCAAGCG", "uncleaved DNA left (log2)": -0.0351}, {"sequence": "CTCGCCT", "uncleaved DNA left (log2)": -0.0157}, {"sequence": "AAGTCGA", "uncleaved DNA left (log2)": 0.00437}, {"sequence": "GGCTCCA", "uncleaved DNA left (log2)": 0.0465}, {"sequence": "GAAAATT", "uncleaved DNA left (log2)": -0.265}, {"sequence": "CACAAGT", "uncleaved DNA left (log2)": 0.0133}, {"sequence": "TCGCTAT", "uncleaved DNA left (log2)": -0.127}, {"sequence": "TGGGGAA", "uncleaved DNA left (log2)": -0.0257}, {"sequence": "TTATGGT", "uncleaved DNA left (log2)": -0.111}, {"sequence": "ATTTATG", "uncleaved DNA left (log2)": 0.0324}, {"sequence": "CAATAAT", "uncleaved DNA left (log2)": -4.05}, {"sequence": "AGCGGGG", "uncleaved DNA left (log2)": 0.228}, {"sequence": "CAAATAG", "uncleaved DNA left (log2)": 0.0381}, {"sequence": "ATATCCA", "uncleaved DNA left (log2)": 0.0254}, {"sequence": "TGGAATG", "uncleaved DNA left (log2)": -0.0858}, {"sequence": "GCACGAT", "uncleaved DNA left (log2)": 0.143}, {"sequence": "TGGCTAC", "uncleaved DNA left (log2)": 0.0866}, {"sequence": "ACTAAAA", "uncleaved DNA left (log2)": 0.0708}]}]}
